About 340 (0.77%) of roughly 44,000 compounds were called active. About 5% were inconclusive and are not listed. Calls follow the shape of the dose curve; as a rule, active = well fitted inhibition curve with a large enough effect; inconclusive = small, poorly fitted or top-dose-only effect; inactive = flat fitted curve, though single readings scatter. This is one part of the list.
Assay: Acumen qHTS Assay for Inhibitors of the mTORC1 Signaling Pathway in MEF (Tsc2-/-, p53-/-) Cells: Sytravon;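 also: plate controls were DMSO for no effect and rapamycin for full effect; nearly all actives have a fitted effect of over 50% in size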
Details: phospho-rpS6 immunofluorescence/PI, 24 h; series mostly up to 38.3 µM; activity change, negative = inhibition: at the top concentration
How it was run: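 Tsc2-/-, p53-/- MEFs (empty-vector stable line) in DMEM + 10% FBS were treated with compounds 24 h at 37 degree Celsius, fixed, and immunostained for phospho-rpS6 (Alexa-488) with propidium iodide counterstain. Laser-scanning cytometry gave % positive cells, normalized against 7.5 nM rapamycin and DMSO.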

Activity change, negative = inhibition, inactive:
Cc1cccc(NC(=O)c2ccc3c(c2)CCN3S(=O)(=O)c2ccccc2)c1C -4.06%
COc1cccc(OC)c1C(=O)Nc1nc2c(s1)CCc1ccccc1-2 8.24%
Cc1nc2c(c(C)c1CCC(=O)NCc1ccc(Cl)cc1)c(=O)n(C)c(=O)n2C -12.8%
CC(CNC(=O)CN1C(=O)c2cccnc2Oc2ccc(Cl)cc21)c1ccccc1 (configuration not stated) -7.49%
COc1ccc(-c2noc(-c3ccc(N4CCN(c5ccccc5)CC4)c([N+](=O)[O-])c3)n2)cc1 2.26%
COC(=O)c1ccc(NC(=O)N2CCN(Cc3cc(=O)n4nc(-c5ccc(C)cc5)sc4n3)CC2)cc1 4.05%
Cc1ccc(/C=C/c2onc(C)c2S(=O)(=O)N2CCC(C(=O)N3CCN(c4ccccc4F)CC3)CC2)cc1 -4.4%
O=C(NCc1nc2ccccc2[nH]1)c1c(F)cccc1F 0.544%
Cc1cccc(-n2c(C)nc3cc(C(=O)NCCC4=CCCCC4)ccc32)c1 -0.39%
COc1ccc(NC(=O)CCNS(=O)(=O)c2cccc3nsnc23)cc1Cl -6.29%
CCn1c(=O)cc(OCC(=O)N2CCN(c3ccc(OC)cc3)CC2)c2ccccc21 -6.9%
CCCS(=O)(=O)N1CC(=O)N(c2ccc(C)cc2)C(C)(C(=O)NC2CCCCCC2)C1 (configuration not stated) 1.88%
CCOc1ccccc1CN1CCc2nc(Nc3ccc4c(c3)OCCO4)ncc2C1 -0.0208%
COc1ccc(CCNC(=O)c2cc3sccc3n2Cc2ccc(Cl)cc2)cc1OC 9.27%
Cc1oc2ncn(CC(C)C)c(=O)c2c1C(=O)NC(C)c1ccccc1 (configuration not stated) -2.12%
CCOc1ccc(NC(=O)Cn2c(=O)c(CNc3ccc(CC)cc3)cc3cc4c(cc32)OCO4)cc1 -0.224%
Cc1ccc(CNc2ncnc3onc(-c4ccc(F)cc4)c23)cc1 1.34%
Cc1cc(C)c2nc(NC(=O)c3ccc(S(=O)(=O)N4CCc5ccccc54)cc3)sc2c1 -0.71%
Cc1cccc(-n2ccnc2SCC(=O)Nc2cccc3ccccc23)c1C 0.889%
CCOc1ccc(Nc2nnc(-n3nc(C)cc3C)c3ccccc23)cc1 -1.36%
COc1ccc(C(=O)Nc2ccc3c(c2)CCCN3C(=O)c2cccs2)c(OC)c1 10.2%
COc1cc(OC)c(NC(=O)N2CCCn3nc(C)cc32)cc1Cl -22.1%
COCCn1c(C)cc(O)c(C(c2ccccc2)N2CCN(c3ccccc3)CC2)c1=O (configuration not stated) -0.121%
COc1ccc(-c2nnc(SCC(=O)NC3CCCCC3)nc2-c2ccc(OC)cc2)cc1 -3.92%
O=C(Cn1c(=O)n(Cc2ccc3c(c2)OCO3)c(=O)c2oc3ccccc3c21)Nc1ccccc1F -2.59%
CCCCSc1nnc2c(n1)OC(C)N(C(C)=O)c1ccccc1-2 (configuration not stated) -1.87%
CCc1ccccc1NC(=O)CC1Sc2ccc(C(F)(F)F)cc2NC1=O (configuration not stated) 0.284%
COc1ccc(CCNC(=O)C2COc3ccccc3C2)cc1OC (configuration not stated) 2.73%
COc1ccc(CCNC(=O)Cc2c(C)c3cc4c(C)coc4c(C)c3oc2=O)cc1 -9.18%
Cn1c(Oc2ccc(Cl)cc2)nc2c1c(=O)n(Cc1ccc(F)cc1)c(=O)n2C 6.38%
O=C(NCCc1ccccc1)c1ccc2c(c1)N(Cc1ccc(F)cc1)C(=O)c1ccccc1S2 -4.75%
COc1ccc(C(=O)NC(c2ccc(Cl)cc2)c2cc(Cl)c3cccnc3c2O)cc1 (configuration not stated) 1.71%
CCCCN(CC)C(=O)c1cc2c(=O)n3cccc(C)c3nc2s1 -10.6%
Cc1cc(C)cc(NC(=O)CCC(=O)N2CCSc3ccccc32)c1 0%
COc1cc(Cl)c(C)cc1NC(=O)c1cnc(N2CCOCC2)c2ccccc12 -11.5%
Cc1ccc(Nc2ccc(N3CCN(C(=O)c4ccc([N+](=O)[O-])cc4)CC3)nn2)cc1 -1.2%
Cc1cccn2c(=O)c3cc(C(=O)Nc4ccc(Cl)c(Cl)c4)sc3nc12 4.57%
Cn1c(SCc2ccc(Br)cc2)nc2c([nH]c3ccccc32)c1=O -4.05%
Cc1ccc(S(=O)(=O)NCCc2csc(-c3cccc(F)c3)n2)cc1 -3.4%
CCOC(=O)c1cccc(NS(=O)(=O)c2cc3c(cc2C)NC(=O)CO3)c1 2.24%
Cc1ccc(NC(=O)CN2C(=O)CC(C)Sc3ccccc32)c(C)c1 (configuration not stated) -3.85%
Cc1nc2ccn(Cc3ccco3)c(=O)c2cc1C(=O)NCc1ccc(F)cc1 -14.8%
Cc1oc2ccc(O)c(CN3CCOCC3)c2c1C(=O)Nc1cccc(Cl)c1C 7.39%
CCNC(=O)Cn1nc(C)n2c(cc3c(OC)cccc32)c1=O 0.594%
Cc1c(Cl)cccc1-n1ncc(C(=O)N2CCOCC2)c1C1CCN(C(=O)OC(C)(C)C)CC1 -8.92%
Cc1cc(C)n(C(C)CC(=O)NCc2ccc(Cl)cc2)n1 (configuration not stated) 5.63%
Cc1ccc(OCCCSc2nc(-c3ccc(C(C)(C)C)cc3)nc3cc(=O)[nH]n23)cc1C -1%

Reference: PubChem BioAssay AID493208 (National Center for Advancing Translational Sciences (NCATS), 2011)
